Source: PubChem BioAssay AID1159614 (National Center for Advancing Translational Sciences (NCATS), 2016)
About 65 (0.1%) of roughly 45,000 compounds were called active. The call rests on the fitted dose curve; in most records, active means well fitted activation curve with a large enough effect; inconclusive means small, poorly fitted or top-dose-only effect; inactive means no such curve, though single readings can be large or run the other way. This is one part of the list.

Target: Galactocerebrosidase (Homo sapiens) (UniProt P54803)
Assay: A Novel Cell-Based Assay to Identify Small Molecules for B -Galactocerebrosidase; further: 0% is about no effect; nearly all actives have a fitted effect of over 65% in size
Settings: 145M-Twi-hGALC-G270D cells (Twitcher mouse brain line with human GALC G270D), HMU-beta-Gal fluorescence, 48 h; series mostly up to 57.5 µM; activation: at the top concentration
Outline: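 Fluorogenic HMU-b-Gal hydrolysis (0.1 mM final, pH 5.2 citrate-phosphate with 1 mg/mL sodium taurocholate; carbonate stop buffer) measures mutant GALC activity after compound treatment of live 145M-Twi Twitcher brain cells stably carrying human GALC-G270D, with wild-type GALC line alongside; activation sought.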

Chain of UniProt P54803 (P54803 whole entry, looked up): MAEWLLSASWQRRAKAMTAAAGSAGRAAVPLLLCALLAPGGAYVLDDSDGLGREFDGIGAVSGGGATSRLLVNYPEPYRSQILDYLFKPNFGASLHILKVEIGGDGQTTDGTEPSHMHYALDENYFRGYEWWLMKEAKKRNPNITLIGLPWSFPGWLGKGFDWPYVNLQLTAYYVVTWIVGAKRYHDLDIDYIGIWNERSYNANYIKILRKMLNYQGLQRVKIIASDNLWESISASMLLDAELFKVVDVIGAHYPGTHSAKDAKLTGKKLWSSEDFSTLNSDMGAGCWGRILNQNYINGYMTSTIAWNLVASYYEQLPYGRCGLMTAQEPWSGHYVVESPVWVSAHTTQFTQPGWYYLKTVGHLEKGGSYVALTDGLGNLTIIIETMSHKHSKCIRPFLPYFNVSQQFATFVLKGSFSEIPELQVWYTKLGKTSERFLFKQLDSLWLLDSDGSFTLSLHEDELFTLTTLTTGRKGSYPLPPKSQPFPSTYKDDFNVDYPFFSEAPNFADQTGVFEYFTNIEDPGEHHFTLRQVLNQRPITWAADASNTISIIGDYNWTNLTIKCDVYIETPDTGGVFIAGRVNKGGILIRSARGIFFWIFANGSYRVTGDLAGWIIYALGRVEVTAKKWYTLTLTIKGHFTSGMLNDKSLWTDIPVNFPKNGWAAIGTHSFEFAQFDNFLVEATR

activation, inactive:
CCc1cccc(NC(=O)c2cc3c(=O)n(Cc4ccc(OC)cc4)ccc3nc2C)c1 -6.99%, CCCSc1nnc2c(n1)OC(c1sccc1C)Nc1ccccc1-2 (stereo not drawn) -20.6%, Cc1ccc(N2C(=O)N(CC(=O)C(C)(C)C)c3ccccc3S2(=O)=O)cc1C -0.0621%, CCOc1ccc(-c2cc(C(=O)N3CCN(S(=O)(=O)c4cc(Cl)ccc4OC)CC3)[nH]n2)cc1 -5.56%, CC1=C(C(=O)OCC2CCCCC2)C(c2cccc(Cl)c2Cl)CC(=O)N1 (stereo not drawn) -14%, Cc1ccc(C2CC(=O)Nc3cc4c(cc32)OCCO4)cc1 (stereo not drawn) -5.59%, CC(=O)N1CCCC1c1nc2ccccc2n1Cc1ccccc1 (stereo not drawn) -13%, CCOc1ccc(C(=O)c2oc3ccccc3c2NC(=O)Cc2coc3cc(C)cc(C)c23)cc1 -19.9%, CCc1ccc(Cn2c(CNS(=O)(=O)c3ccc(F)c(Cl)c3)nc3cccnc32)cc1 8.42%, Cc1cc2oc(C(=O)N(Cc3ccccc3F)C3CCS(=O)(=O)C3)c(C)c2cc1Cl (stereo not drawn) -16.9%, CCOC(=O)c1ccc(NC(=O)c2c(N3CCCC3=O)c3cc(OC)ccc3n2C)cc1 -21.3%, Cc1ccc(C)c(N2CCN(C(=O)Cn3ncc4ccsc4c3=O)CC2)c1 -19.6%, Cc1c(Cl)cccc1NC(=O)CN1C(=O)COc2ccc(S(=O)(=O)N3CCOCC3)cc21 -19%, CCc1ccc(N2C(=O)CSC23C(=O)N(Cc2ccc(C)cc2)c2ccccc23)cc1 (stereo not drawn) -42.3%, CCCC(CCC)C(=O)Nc1cc(-c2cn3cccnc3n2)ccc1OC -2.54%, COc1cc(C(c2c(C)[nH][nH]c2=O)c2c(C)[nH][nH]c2=O)ccc1OC(=O)c1cccc(C)c1 -24.7%, O=C(c1ccc2c(c1)CCCC2)N1CCN(c2nc3c(F)cccc3s2)CC1 -21.2%, CCOC(=O)C1CCCCN1S(=O)(=O)c1csc(C(N)=O)c1 (stereo not drawn) 18.3%, CCn1cc(C(=O)NCc2ccccc2)c(=O)c2cc(S(=O)(=O)N3CCc4ccccc4C3)ccc21 -9.17%, COc1ccc(Cn2cc(C(=O)c3ccc(C)cc3)c(=O)c3cc(OC)c(OC)cc32)cc1 -9.37%, COc1ccc(S(=O)(=O)c2c(C)c(NS(=O)(=O)c3ccccc3)cc(C)c2O)cc1 -19.2%, Cc1oc(-c2cccc(Cl)c2)nc1CN1CCC(C(=O)NCCCN2CCN(c3ccc(F)cc3)CC2)CC1 -10.8%, O=C(CSc1nc2c(c(=O)[nH]1)CCC2)Nc1ccccc1C(F)(F)F -25.3%, O=C(NCN1CCOCC1)c1cnccn1 -10.8%, Cc1ccccc1Nc1c(-c2ccc(Cl)s2)nc2cccc(C)n12 -1.95%, CN1CC[C@H](c2c(O)cc(O)c3c(=O)cc(-c4ccccc4Cl)oc23)[C@H](O)C1 -8.21%, CN(C)c1ccc(-n2c(CCC(=O)O)ccc2-c2ccccc2)cc1 -1.12%, COc1ccc(C2=NC(c3ccncc3)=Nc3ccc(Br)cc3N2)cc1 -7.97%, COc1ccc(CC(=O)NCc2ccc3c(c2)CCN3C(=O)c2ccccc2)cc1OC -12.8%, Cc1ccc(C2=CC(c3ccccc3F)n3c(nc4ccccc43)N2)cc1C (stereo not drawn) 16.9%, CCc1cccc(NC(=O)C2CCCN(S(=O)(=O)c3cccs3)C2)c1 (stereo not drawn) -4.26%, CC(C)(C)c1ccc(OCCn2cc(C(=O)c3ccco3)c3ccccc32)cc1 -16.1%, COc1ccccc1N1CCN(C(CNC(=O)C(=O)NCc2ccc(C)cc2)c2cccnc2)CC1 (stereo not drawn) -6.72%, CCOC(=O)C1=C(CN2CCCCC2)NC(=O)NC1c1cc(C)ccc1C (stereo not drawn) -11.4%, CCn1cc(C(=O)N2CCN(c3ccc(F)cc3)CC2)c(=O)c2cc(S(=O)(=O)N(C)C3CCCCC3)ccc21 -9.57%, CNC(=O)CN1C(=O)c2cccnc2Sc2ccccc21 -9.26%, CC(C)CC1N=C2c3ccccc3N=C(SCC(=O)NCCc3ccc(Cl)cc3)N2C1=O (stereo not drawn) -9.06%, CCNC(=O)c1cnc2c(-c3ccccc3)c(C)nn2c1C -10.5%, COc1ccc(-c2nc3cc(C)ccn3c2NC(=O)c2ccc(C)c(C)c2)cc1 -6.13%, CC(C)CCn1c(=O)c2sccc2n2c(CCCC(=O)NC(C)C)nnc12 5.51%, Cc1cccc(-c2nc3c(c(SCc4ccccc4Cl)n2)Cc2c(CO)cnc(C)c2O3)c1 -10.4%, COc1cc(Cl)c(C)cc1NC(=O)c1cc2c(Cl)nc3ccc(C)cc3c2s1 -16%, CCOc1ccccc1NC(=O)c1c(NC(=O)C(C)Oc2ccc(Cl)cc2)sc2c1CCCCC2 (stereo not drawn) -10.2%, Cc1cccc(OCC(=O)Nc2ccccc2OCc2cc(=O)n3ccccc3n2)c1 -17.2%, COc1cccc(CNC(=O)CN(C)S(=O)(=O)c2ccc3[nH]c4c(c3c2)CCCC4)c1 -14.3%, COc1ccc(-n2c(=O)c3c4c(sc3n(Cc3ccccc3Cl)c2=O)CCC4)c(OC)c1 -9.3%, COc1ccccc1CCNC(=O)c1ccc2c(c1)c(C)c(C)n2Cc1ccc(Cl)cc1 -7.91%, O=C(O)Cn1c(=O)n(Cc2ccc(Br)cc2F)c(=O)c2ccc(Cl)cc21 -11.3%, O=C(NCc1ccccc1Cl)C1CCCN(C(=O)c2cnn(-c3ccccc3)c2-n2cccc2)C1 (stereo not drawn) -6.18%, CCOc1ccccc1CNC(=O)C1CCCN(c2ncnc3onc(-c4ccc(F)cc4)c23)C1 (stereo not drawn) -12.3%, CCCCOc1ccc(CN2C(=O)C(=O)c3cc(Br)cc(C)c32)cc1OC -11.9%, Cc1cccc(C)c1-n1ncc(C(=O)Nc2ccc3c(c2)OCO3)c1C1CCN(C(=O)OC(C)(C)C)CC1 -20%, COc1cccc(-c2cc(C(F)(F)F)nc(NCCc3ccccc3)n2)c1 -11.1%, Cc1ccc(CN2CCc3nc(N4CCN(c5ccccc5F)CC4)ncc3C2)cc1C -14.7%, COc1ccccc1C(=O)Nc1c(C(=O)N(C)Cc2ccccc2)sc2nc(C)c(Cl)c(C)c12 -10.1%, O=C(CSc1nnc(-c2ccc(O)cc2)o1)c1ccc(Br)cc1 -6.08%, Cc1ccc2c(c1)-c1nc(-c3ccc4c(c3)NC(=O)CO4)cc(-c3ccc(F)cc3)c1CO2 -10.4%, CCCCOc1ccc(CNC(=O)C2COc3ccc(OC)cc3C2)cc1 (stereo not drawn) -23.7%, Cn1c(=O)n(C/C=C/c2ccccc2)c(=O)c2c1nc1n2CCN1c1ccccc1 -12.5%, COc1ccc(S(=O)(=O)N(CC(=O)Nc2cccc(C(F)(F)F)c2)c2ccc(C)cc2)cc1 0.0299%, COc1ccc(CN(Cc2ccco2)c2cnc(S(C)(=O)=O)nc2C(=O)Nc2ccc(F)cc2)cc1 -8.63%, CC(C)NCC(O)COc1ccc(COCCOC(C)C)cc1 (stereo not drawn) -15.3%, COc1ccc(OC)c(-c2csc(-c3c(N)c(C(=O)c4ccccc4)n4ccccc34)n2)c1 -15.5%, O=C(Cn1ncn2nc(-c3cccs3)cc2c1=O)NCc1cccc(Br)c1 -0.319%, COC(=O)c1cccnc1-n1c(=O)c2cccnc2n(CC(=O)Nc2c(C)cc(C)cc2C)c1=O -14.6%, Cc1ccc(NC(=O)CN2C(=O)COc3ccc(S(=O)(=O)N4CCCCC4)cc32)cc1N(C)C -8.25%, COc1ccc(-n2c(=O)c3c(c4cc(OC)ccc4n3C)n(Cc3cc(C)ccc3C)c2=O)cc1 22.7%, CCOc1ccc(C(=O)c2cn(CC(=O)Nc3ccc4c(c3)OCO4)c3ccc(OCC)cc3c2=O)cc1 -7.86%, CCOc1ccc(S(=O)(=O)N(CC(=O)Nc2ccc3c(c2)OCO3)c2ccccc2)cc1 -10.1%, Cc1ccc(NC(=O)Cn2c(=O)n(-c3ccccc3)c(=O)c3ccc(C(=O)NCc4ccc5c(c4)OCO5)cc32)c(C)c1 -12.7%, CC(C)CN(CCNC(=O)CN1C(=O)CSc2ccc(S(=O)(=O)N3CCOCC3)cc21)CC(C)C -5.71%, Cc1cccc(CNC(=O)c2ccc(NC(=O)N3CC(C)Sc4ccccc43)cc2)c1 (stereo not drawn) -7.88%, Nc1c(C(=O)c2ccc(F)cc2)sc(Nc2ccccc2F)c1S(=O)(=O)c1ccc(Br)cc1 -26.6%, CCOC(=O)c1cccc(NC(=O)c2ccc3nc(Cc4ccccc4)oc3c2)c1 -12.8%, O=C(/C=C\c1ccc2c(c1)OCO2)NC1CC(=O)N(c2cccc(F)c2)C1 (stereo not drawn) -10.5%, O=C(Nc1c(-c2ccc(F)cc2)nc2ccccn12)c1ccccc1F -10.9%, COc1ccccc1CNC(=O)c1ccc2c(c1)CCN2S(=O)(=O)c1ccccc1 -27.6%, COc1cccc(/C=C/c2onc(C)c2S(=O)(=O)N2CCC(C(=O)N3CCC(C)CC3)CC2)c1 -13.8%, Cc1cc2ccccc2n1-c1ccc(C(=O)N2CCC(C(=O)NCc3ccccc3Cl)CC2)s1 -17.6%, COc1ccccc1N1CCN(C(=O)CSc2n[nH]c(-c3ccccc3)n2)CC1 3.6%, Cc1ccc(-n2c3c(c(=O)[nH]c2=O)C(NC(=O)c2ccccc2C)(C(F)(F)F)C(=O)N3)cc1 (stereo not drawn) -11.9%, Cc1ccccc1NCc1cccn1-c1nnc(N2CCC(C)CC2)s1 -20%, COc1ccc(-c2cn3c(n2)sc2cc(C(=O)Nc4cccc(OC)c4)ccc23)cc1 -12.4%, COC(=O)c1scc(-c2ccc(C)cc2)c1S(=O)(=O)Nc1ccc(N(C)C)cc1 13.7%, CCOC(=O)C1=C(CN2CCN(c3ccccc3F)CC2)NC(=O)NC1c1ccc(Cl)cc1 (stereo not drawn) 1.39%, CC(CNC(=O)Cc1ccc(NC(=O)N2CCSc3ncccc32)cc1)c1ccccc1 (stereo not drawn) -23.4%, Cn1c(=O)oc2cc(S(=O)(=O)Nc3ccccc3O)ccc21 -20.5%, Cc1ccc(CNC(=O)C2CCN(S(=O)(=O)c3cc(-c4noc(C)n4)ccc3C)CC2)cc1 -4.49%, CCOc1ccc(NC(=O)CC2C(=O)N(c3ccccc3)C(=O)N2Cc2ccc3c(c2)OCO3)cc1 (stereo not drawn) -15.3%, Cc1c(Cl)cccc1-n1nc(C)c2c(C(=O)NCc3ccccc3)cc(C3CC3)nc21 -14.6%, Cc1nc2c(-c3ccccc3)c(C)nn2c(C)c1CCC(=O)NCc1ccc(F)cc1 6.23%, CCOc1ccc(CCNC(=O)c2cc3c(s2)-c2ccccc2OC3)cc1OCC -10.1%, Cc1ccc(-c2cc(NC(=O)COc3ccc(Cl)cc3C)on2)cc1 -19.4%
